Test results as given in PubChem BioAssay AID1631 (National Center for Advancing Translational Sciences (NCATS), 2009).
Out of some 260,000 compounds screened, about 890 (0.34%) were called active. Inconclusive results, whose numbers are uncertain, are shown with a selection of clear calls. Calls follow the shape of the dose curve; as a rule, active = well fitted activation curve with a large enough effect; inconclusive = small, poorly fitted or top-dose-only effect; inactive = no such curve, though single readings can be large or run the other way. No potency is given beside an inconclusive call; the fits are too rough.

Each compound was assayed against Pyruvate kinase PKM (Homo sapiens) (UniProt P14618) (assay: qHTS Assay for Activators of Human Muscle isoform 2 Pyruvate Kinase). Details: purified PKM2, Kinase-Glo ATP luminescence; Potency: activation; activation: at 57.5 µM (top of the series), 0% is enzyme alone, no compound.
In short: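 ATP formation by purified human PK-M2, quantified via coupled luciferase luminescence after 1 h at room temperature with 0.1 mM ADP and 0.5 mM PEP final.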
% is scaled to controls: 0 for no effect and ±100 for the full control effect; potency is read from the fitted curve at half-maximal effect; tags tell the direction and shape of the fitted curve.
Also: nearly all actives have a fitted effect of over 55% in size.

Chain of UniProt P14618 (P14618 whole entry, looked up, canonical isoform): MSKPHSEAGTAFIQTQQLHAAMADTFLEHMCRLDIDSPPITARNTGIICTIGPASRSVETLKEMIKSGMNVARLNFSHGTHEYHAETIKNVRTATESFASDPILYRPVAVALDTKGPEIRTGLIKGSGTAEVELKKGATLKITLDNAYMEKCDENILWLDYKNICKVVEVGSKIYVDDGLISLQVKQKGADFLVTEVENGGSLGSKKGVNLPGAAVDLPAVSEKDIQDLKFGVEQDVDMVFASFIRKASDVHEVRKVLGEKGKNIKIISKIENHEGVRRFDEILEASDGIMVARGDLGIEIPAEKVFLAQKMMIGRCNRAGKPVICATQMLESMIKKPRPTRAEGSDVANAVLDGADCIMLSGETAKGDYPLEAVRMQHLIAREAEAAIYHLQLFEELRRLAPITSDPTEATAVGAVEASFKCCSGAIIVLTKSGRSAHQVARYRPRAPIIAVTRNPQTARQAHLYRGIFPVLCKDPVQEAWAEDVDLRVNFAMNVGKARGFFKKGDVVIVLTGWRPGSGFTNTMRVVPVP

Q: `Cc1ccc(C)c(N2N=C(C(=O)Nc3ccccc3N3CCCC3)CCC2=O)c1` was tested. Which Potency did it give?
A: inactive

Q: How did the Potency turn out when `O=C(NCCCN1CCC(Cc2ccccc2)CC1)C1CCC(=O)N1C1CCCC1` (stereo unspecified) was run?
A: inconclusive [rising, single point]

Q: How did the Potency turn out when `Cc1sc2ncnc(SCc3ccco3)c2c1C` was run?
A: inconclusive [rising, single point]

Q: Which Potency does the source give for `CCOC(=O)C1CCCN(C(=O)c2ccccc2SCCOC)C1` (stereo unspecified) here?
A: inconclusive [rising, partial curve, poor fit]

Q: For `COc1cc(-c2nnc(NC(=O)c3ccc(S(=O)(=O)N4CCOCC4)cc3)o2)cc(OC)c1OC`, which Potency is on record?
A: inactive

Q: Which Potency does the source give for `CC(=O)Nc1ccc(Nc2cc(-c3ccccc3)nc3ncnn23)cc1` here?
A: inconclusive [rising, single point]

Q: For `COc1cc(/C=C(/C#N)C(=O)NCc2ccccc2)cc(OC)c1OC`, which Potency is on record?
A: inactive

Q: Which Potency does the source give for `CCc1ccc(S(=O)(=O)c2nnn3c2nc(NCCNC(C)=O)c2ccccc23)cc1` here?
A: active: 11.2 µM

Q: `COCCSc1ccccc1C(=O)Nc1cc(C)cc(C)c1` was tested. Which Potency did it give?
A: inconclusive [rising, single point]

Q: Which Potency does the source give for `CCCCCCn1c(=O)[nH]c2nc3cc(N)c(C)cc3nc2c1=O` here?
A: inconclusive [rising, single point]

Q: How did the Potency turn out when `CC(C)NC(=O)c1ccc2c(=O)n(C3CCCC3)c(=S)[nH]c2c1` was run?
A: inactive

Q: Which Potency does the source give for `COc1cccc(NC(=S)NCc2ccccc2)c1` here?
A: inactive

Q: How did the Potency turn out when `O=C(Nc1ccc(-c2nc3ncccc3o2)cc1)c1ccco1` was run?
A: inactive

Q: Which Potency does the source give for `Cc1ccc(NC(=O)c2cc(-c3ccc(C)o3)nc3ccccc23)cc1` here?
A: inconclusive [rising, partial curve]

Q: With `CC(C)NCCCOc1ccc(C(C)(C)c2ccccc2)cc1` as the compound, how does the Potency read?
A: inactive

Q: With `N#Cc1c(-c2ccco2)ccn(Cc2cccc(F)c2)c1=O` as the compound, how does the Potency read?
A: inconclusive [rising, partial curve]

Q: For `COc1cccc(/C=N/NC(=O)c2cc3c(OC)cccc3[nH]2)c1O`, which Potency is on record?
A: inconclusive [rising, single point]

Q: `COc1ccc(-c2nnc3c4ccccc4c(C)nn23)cc1S(=O)(=O)N1CCN(CCO)CC1` was tested. Which Potency did it give?
A: inconclusive [rising, partial curve, poor fit]

Q: With `COc1ccc(NS(=O)(=O)c2ccc3oc(=O)ccc3c2)cc1` as the compound, how does the Potency read?
A: inconclusive [rising, partial curve]

Q: Which Potency does the source give for `CC(=O)Nc1csc2ccccc12` here?
A: inconclusive [rising, single point]

Q: How did the Potency turn out when `CCOC(=O)C1CCN(c2nc(N)c3c(N)nc(SCC(=O)O)cc3c2C#N)CC1` was run?
A: active: 10 µM

Q: Which Potency does the source give for `Cc1ccc(NS(=O)(=O)c2c(C)nc3sccn3c2=O)c(C)c1` here?
A: inconclusive [rising, partial curve]

Q: For `COc1cc(/C=C2\S/C(=N/S(=O)(=O)Cc3ccccc3)NC2=O)c([N+](=O)[O-])cc1OC`, which Potency is on record?
A: inconclusive [rising, single point]

Q: `CCC(=O)OCCNc1cc(SCCC(=O)OC)c2nonc2c1[N+](=O)[O-]` was tested. Which Potency did it give?
A: inactive

Q: For `COc1cc([N+](=O)[O-])cc(/C=N/NC(=O)Cn2cncn2)c1O`, which Potency is on record?
A: inconclusive [rising, single point]

Q: With `C#CC(C)(C)NC(=O)c1ccc(-c2ccccc2F)cc1` as the compound, how does the Potency read?
A: inconclusive [rising, single point]

Q: With `Cc1nc(-c2ccc(S(=O)(=O)NCc3ccccn3)s2)cs1` as the compound, how does the Potency read?
A: inconclusive [rising, single point]

Q: For `O=C(c1ccc[nH]c1=S)N1CCN(S(=O)(=O)c2ccc(Br)cc2Cl)CC1`, which Potency is on record?
A: inconclusive [rising, partial curve]

Q: Which Potency does the source give for `CSc1ccc(S(=O)(=O)N2CCC(C(=O)NCc3ccccn3)CC2)cc1` here?
A: inconclusive [rising, single point]

Q: With `c1ccc(Cn2ncc3c(N4CCCCC4)ncnc32)cc1` as the compound, how does the Potency read?
A: inconclusive [rising, partial curve]

Q: `O=C(CN1C(=O)c2ccccc2S1(=O)=O)NCCSCc1c(F)cccc1Cl` was tested. Which Potency did it give?
A: inactive

Q: With `CCCCOc1ccc(-c2nnc(N)s2)cc1` as the compound, how does the Potency read?
A: inactive

Q: For `CC(C)c1cccc(OCC(=O)Nc2ccc(S(=O)(=O)Nc3ccccn3)cc2)c1`, which Potency is on record?
A: inconclusive [rising, single point]

Q: For `Cc1ccc(SCC(=O)NC(=O)c2ccc(S(=O)(=O)N(C)C)cc2)cc1C`, which Potency is on record?
A: inconclusive [rising, single point]

Q: Which Potency does the source give for `CN(c1ccc(C(=O)NCc2cccs2)cc1)S(=O)(=O)c1ccccc1` here?
A: inconclusive [rising, partial curve]

Q: How did the Potency turn out when `CCOC(=O)c1c(-c2ccc(C)o2)csc1NC(=O)COC(=O)c1ccc(NC(N)=O)cc1` was run?
A: inconclusive [rising, single point]

Q: Which Potency does the source give for `Cc1ccc(NC(=O)COC(=O)Cn2nc(C)c([N+](=O)[O-])c2C)c([N+](=O)[O-])c1` here?
A: inconclusive [rising, single point]

Q: How did the Potency turn out when `CCCNC(=S)Nc1ccc(Nc2ccccc2)cc1` was run?
A: inactive

Q: Which Potency does the source give for `COC(=O)[C@@H]1C[C@]2(OC(=O)c3ccccc3)C=CC(=O)C[C@@H]2N1C(=O)OCc1ccccc1` here?
A: inactive

Q: `COc1ccc(CCn2c(N)c(C#N)c3nc4ccccc4nc32)cc1OC` was tested. Which Potency did it give?
A: inactive

Q: How did the Potency turn out when `O=C(c1ccccc1)c1coc2ccc(O)c(Cl)c12` was run?
A: inconclusive [rising, single point]

Q: With `CC(NC(=O)NNC(N)=S)(C(F)(F)F)C(F)(F)F` as the compound, how does the Potency read?
A: inactive

Q: How did the Potency turn out when `O=S(=O)(Nc1cccc2nsnc12)c1ccccc1` was run?
A: inconclusive [rising, single point]

Q: How did the Potency turn out when `O=c1ccc(N=Nc2ccccc2)ccc1O` was run?
A: inactive

Q: Which Potency does the source give for `COc1ccc(-c2[nH]ncc2/C=C(\C#N)C(=O)NC2CC2)cc1` here?
A: inactive

Q: With `CC(C)Nc1ncnc2c1nnn2Cc1ccccc1` as the compound, how does the Potency read?
A: inconclusive [rising, partial curve]

Q: With `Cc1cc[n+](-c2[nH]c(=O)sc2/C=N/NC([S-])=Nc2ccccc2)cc1` as the compound, how does the Potency read?
A: inconclusive [rising, single point]

Q: How did the Potency turn out when `Cc1cccc(N(C)S(=O)(=O)c2cc3c(cc2C)n(C)c(=O)c(=O)n3C)c1` was run?
A: active: 10 µM

Q: `Cc1cc(NC(=O)C2CCCCC2)ncc1NC(=O)c1ccccn1` was tested. Which Potency did it give?
A: inconclusive [rising, single point]

Q: With `Nc1ccc(S(N)(=O)=O)cc1N` as the compound, how does the Potency read?
A: inconclusive [rising, single point]

Q: For `COc1cccc2[nH]c3c(N4CCCCC4)ncnc3c12`, which Potency is on record?
A: inconclusive [rising, single point]

Q: For `CCOc1ccccc1NC(=O)CSc1nc2c(c(=O)n(C)c(=O)n2C)n1C`, which Potency is on record?
A: inconclusive [rising, partial curve]

Q: `COc1cccc(S(=O)(=O)Nc2ccc(C(=O)N3CCCCCC3)cc2)c1` was tested. Which Potency did it give?
A: inconclusive [rising, partial curve]

Q: For `COc1ccc(/C=C2\SC(=S)N(CCC(=O)Nc3ccc(O)cc3)C2=O)cc1`, which Potency is on record?
A: inactive

Q: With `CC(=O)OC(C(=O)Nc1nccs1)c1ccccc1` (stereo unspecified) as the compound, how does the activation read?
A: inactive: -0.169% [at 11.5 µM, 0% is enzyme alone, no compound]

Q: How did the Potency turn out when `CCCC(=O)N=C1SC2CS(=O)(=O)CC2N1c1ccc(-c2nc3ccc(C)cc3s2)cc1` (stereo unspecified) was run?
A: inactive

Q: With `N#C/C(=C/c1ccc(F)cc1)S(=O)(=O)c1ccccc1` as the compound, how does the Potency read?
A: inconclusive [rising, single point]

Q: `N#CC(=C=[N-])c1nc2ccccc2nc1-[n+]1cccc(NC(=O)c2ccccc2)c1` was tested. Which Potency did it give?
A: inconclusive [rising, full curve, poor fit]

Q: Which Potency does the source give for `CCOc1ccc2[nH]c(=O)c(C(c3nnnn3C3CCCCC3)N3CCN(C)CC3)cc2c1` (stereo unspecified) here?
A: inconclusive [rising, single point]

Q: Which Potency does the source give for `CCCCNC(=O)c1onc(CSc2ccncc2)c1C(=O)NCCCC` here?
A: inconclusive [rising, single point]

Q: For `Cc1ccc(N(CC(=O)NC(C)(C)C)C(=O)CS(=O)CC(=O)Nc2ccc3c(c2)OCO3)cc1` (stereo unspecified), which Potency is on record?
A: inconclusive [rising, single point]

Q: For `O=C(COC(=O)C1CCN(/C=C/C(=O)C(F)(F)F)CC1)Nc1ccccc1`, which Potency is on record?
A: inconclusive [rising, single point]

Q: With `CC(=O)Nc1sc(N/N=C\c2cccc(Cl)c2)nc1-c1cccs1` as the compound, how does the Potency read?
A: inconclusive [rising, full curve]

Q: `O=Cc1s/c(=N\S(=O)(=O)c2ccccc2)n(CCCCl)c1Cl` was tested. Which Potency did it give?
A: inconclusive [rising, partial curve]

Q: `O=c1[nH]c2ccc(Cl)cc2c(-c2ccccc2)c1[N+](=O)[O-]` was tested. Which Potency did it give?
A: inconclusive [rising, single point]

Q: For `Nc1cccc2c1C(=O)N(C(=O)c1ccc(Cl)c(S(=O)(=O)N3CCCCCC3)c1)C2=O`, which Potency is on record?
A: inconclusive [rising, full curve, poor fit]

Q: `O=C(Nc1cccnc1)C(Cc1ccccc1)n1cccc1` (stereo unspecified) was tested. Which Potency did it give?
A: inconclusive [rising, full curve, poor fit]

Q: How did the Potency turn out when `O=C(CCCN1C(=O)/C(=C\c2ccccc2)SC1=S)Nc1cccc(C(=O)O)c1` was run?
A: inactive

Q: For `Cc1ccc2c(Cl)cc(Cl)c(OCC(=O)O)c2n1`, which Potency is on record?
A: inconclusive [rising, single point]

Q: Which Potency does the source give for `C/C=C\C=C/C(=O)Nc1cccc(C2=NOC3(C2)C[C@@H](C(N)=O)N(C(=O)CCCCC)C3)c1` (stereo partly specified) here?
A: inconclusive [rising, single point]

Q: For `O=C(Cc1cccs1)Nc1nc2ccccc2s1`, which Potency is on record?
A: inactive
